Laboratory results published in PubChem BioAssay (NCI).
Some structures have more than one record in an assay (separate samples or runs), and their calls can disagree.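 The endpoint reported here, percent growth, reads 100 for growth as untreated, 0 for no net growth and -100 for all cells dead.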 Certain results were filed several times, with different values. Only these are listed. The calls were made as follows: active = growth percent below 10; inactive = the rest. There may be further records. The screen tested this drug many times, at the concentration stated with the values; each value is one run. Additions like (4×) say how often a value occurs here.

Tests used:
Assay in all cases: NCI-60 one-dose screen, 48 h (100 = growth as untreated, 0 = no growth, -100 = all killed)
UO-31 renal = details: 2.5 mM
TK-10 renal = details: 2.5 mM
ACHN renal = details: 2.5 mM; runs of 1991

For `O=c1[nH]cc(F)c(=O)[nH]1`, the growth (UO-31 renal; runs of 1997) was “active: -39.3, -35.6, -44.5, -27, -56.9, -37.4, -75.6, -24.2, -30.1, -42.5, -1.24, -52.7, -0.0809, 5.42, 2.39, -23.7, -3.26, -30.3, -34.2, 3.12, -4.77, 5.44, 4.93, -7.3, 0.556, 8.35, 7.6, -49.1, -41.8, 6.18, -0.804, -66% and inactive: 37.8, 21.3 (2×), 14.2, 29.7, 21.1, 14.3, 16.4, 20.8, 21.9, 18.5, 11.3, 18.8, 14.5%”, the growth (UO-31 renal; runs of 1998) was “active: 9.11, 1.36, 7.66, -23.4, 6.87, -1.86, -5.07, -22.2, -53.4, -0.513, -18.9, -46, 0.281, -35.2, -10, 1.69, 5.77, -35.1, -15.3, 5.91, -30, -40.3% and inactive: 26.4, 12.1, 12.5, 10%” and the growth (UO-31 renal; runs of 1999) was “active: 4.79, -0.968, -25.4, -71.6, -7.22, -25.7, -100 (3×), -90.9, -93.7, -95.9, -91.3, -92, -91.7, -89.7%”. For the same compound, the growth (UO-31 renal; runs of 2000) was “active: -73.2, -77.5, -70.1, -96.5%”, the growth (TK-10 renal; runs of 1991) was “inactive: 42.7, 20.4, 36.6, 41.3, 10.2, 17.9, 54.3, 35.3, 37.8, 31% and active: -6.03, -15.3, -1.32, -33.2, -1.03, -40.3, 1.81%” and the growth (TK-10 renal; runs of 1992) was “inactive: 24.8, 43, 28.9, 42.7, 35.4, 38.2 (3×), 14.2, 33.6, 36.5, 24.2, 37.9, 42, 31.9, 29.2, 37.2, 56.6, 21.9, 31.8, 40.1 (3×), 18, 36.1, 30.2, 39.5, 29.1, 10.1 (2×), 20.2, 21.8, 47.5, 35, 71.2, 28.2, 39.6, 25.3, 51.5, 43.8, 41.8 (2×), 10.2, 12, 75.1, 31.6, 35.1, 74.6, 37.4, 29.8, 34.8, 48.4, 14.6, 48.8, 13.9, 27.6, 26.2, 45.9, 34.9, 34.3, 34.1, 11.3, 10.4, 11.7, 25, 81.4, 28.6, 25.7, 54.8, 31.7, 41.6, 38.4, 36.3, 16.9, 24.9, 11.6, 32.7, 27.7, 17.5, 34.4, 14.9, 28.7, 27.8, 41.2, 30, 25.2, 15.8% and active: -0.479, -5.32, -2.45, -2.09, -0.238, 8.33, 9.39, -12.6, -7.76, -10.9, -19.9, 5.81, -12.7, 5.86, -3.73, -16.9, 9.88, 5.61, 6.48, 2.61, 6.56, -9.71, -4.72, -0.534, -29.6, -10.1, -1.3, -3.17, -20.9, -19.1%”. For the same compound, the growth (TK-10 renal; runs of 1993) was “inactive: 56.1, 44.7, 28.9, 44.2, 43.7, 27.7, 33.4, 21.8, 32.7, 31.5, 43.1, 46.7, 41.8, 42.6, 33.2, 45.4, 57.8, 60.8, 42.7, 64.2, 32.9, 34.2, 14.3, 70.2, 42.4, 28.6, 20.8, 74.1, 20.9, 77.4, 14.4, 106, 12.3, 23.2, 16.8, 37.2, 21, 47.2, 34.1% and active: 2.17, 1.55, -13.4, -4.46, -2.9, -5.72, -0.931, -1.06%”, the growth (TK-10 renal; runs of 1994) was “inactive: 53.4, 43.8, 21.8, 34.7 (2×), 22.9, 38.8, 35.4, 46.2, 19.1, 62.1, 24.4, 39.4, 43.1, 37.8, 29.3, 59.4, 29.8, 33.4, 35.8, 30.1, 54.7, 30.8, 30.5, 26.2, 87.6, 33.2, 14.9, 52.6, 20.3, 39.6% and active: -5.07%, -4.16%, -25.4%” and the growth (TK-10 renal; runs of 1995) was “inactive: 45.6, 29.4, 29.9, 28.3, 71.1, 45.5, 37.9, 67, 15.4, 28.5, 63.2, 49.5, 69.3, 65, 45.8, 25.5, 74, 78.7, 17.7, 50.9, 48.6, 37.3, 59, 37.4, 50.1, 29.6, 32.1, 60.9, 11.9, 38.5, 38.3, 43.9, 14.2, 17.3, 23.9% and active: 0.941, -2.48, -8.98, -11.8, 8.78, -28.5, -13.8, 1.11, -14.1, -5.96, -14, -4.39, -3.08, -100, -78.7%”. For the same compound, the growth (TK-10 renal; runs of 1996) was “inactive: 15.5 (2×), 17.1, 32.8, 49, 12.1, 112, 25.9, 110, 18.6, 12.8, 58.5, 27.4, 40.1, 46.1, 190, 16.8, 33.1 (3×), 31.1, 30.8 (2×), 46.5, 39.1, 38.6, 48.5, 58.3, 46.7, 37.1, 41.3, 48 (2×), 43, 24.7, 47.8, 41.9, 16.5, 56.5, 47.7, 45.3, 46.6, 81.8, 39.2, 52.3, 54.4, 28.6, 43.7, 49.9, 16.7, 99.2, 12.9, 21.9, 34.7, 62.3, 36, 29.3, 36.9, 39.7, 45.5, 52.6, 31.9, 13, 18.2, 45, 33.7, 29.6, 27.1, 37.6, 42.8, 20.7, 14.8, 24.1, 62.7, 50.4% and active: -42.5, 4.52, -75.8, -100 (6×), -84.6, -6.28, -65.5, -79.2, -61.2, -3.19, 5.24, 8.05, -91.6, -6.17, -34.7, 4.58, -37.1, 1.73, -91.7, -80, -82.4, -79.1, -85, -81.5, 7.83, 2.53, 9.14, -12.7, 0.719, -2.08, -8.76, 4.35, 2.69, 1.89, -6.38%”, the growth (TK-10 renal; runs of 1997) was “active: -92.5, 6.14, -0.564, 1.09, 4.53, -4.01, -69.4, -23.3, -20.9, 8.34, -100, -10.8, 0.511, -8.03, 6.74, -36.9, -3.06, -10, -17.5, -31.4, 5.83, -34.9, 6.85, -7.93, -74.3, -85.2, -2.77, 6.05, 0.323, 0.52, -29.2% and inactive: 14, 12.5, 21.8, 28, 13.5, 45.5, 57.8, 47.5, 21.9, 15.1, 12.2, 27.7, 22.8, 16.2, 20.2, 14.6, 27.3, 34.2, 14.4, 29.7, 27.6, 15.8, 20.7, 111, 102, 27.4%” and the growth (TK-10 renal; runs of 1998) was “inactive: 99.4, 28, 39.9, 38.8 (2×), 37.5 (3×), 38, 35.3, 50.3 (2×), 43.6, 52.3, 53.4, 35.1, 59.6, 46.3, 18.6, 64, 69, 58.1, 81, 53.3, 55.5, 58.8, 94.4, 46.7, 37.7, 23.1, 41.5, 51.6, 38.2, 50.4, 11.8, 35.2, 40.2, 60.8, 38.1, 31.8, 36.8, 65.8, 20.9, 26.4, 27.5, 32.6, 14.2, 40.9, 21, 22.1, 12.2, 43, 17.4, 15.7, 32.3, 16.3, 21.6, 38.5, 34.6, 47.3% and active: -86.2, -84.2 (2×), -83.6, -7.68, 1.13, -0.247, 5.84, -3.9, 2.99%”. For the same compound, the growth (TK-10 renal; runs of 1999) was “inactive: 55, 48.4, 50.1, 31.1, 14.2, 17.4, 28.2, 44.6, 29.1, 23.6, 45.6, 27.4, 28.1% and active: -12.2, -100, -50.7, -41.4, -43.8, -58.3, -55.4, -75.6, -66.7, -58.9%”, the growth (TK-10 renal; runs of 2000) was “active: -70.1, -48.3, 1.08, -66.8%” and the growth (ACHN renal) was “active: 6.59, 4.27, -14, 6.91, 7.69, -24.6, 6.58, 9.29, -20.1, -42% and inactive: 11.4, 11.6, 11.9 (2×), 12.2, 13.8, 17.9, 10.8, 18.6%”.
